This note sets out measurements from article PMC2883571, “Quercetin Targets Cysteine String Protein (CSPα) and Impairs Synaptic Transmission” (PLoS ONE, 2010).

Test [1] addresses CSPα_(1–82) truncation construct (J domain only) (rat) (UniProt P60905). Put plainly: SDS-resistant dimer on SDS-PAGE with Western blot; lysates of transiently transfected CAD cells, control or treated 24 h with quercetin (up to 200 µM), EGCG or other agents; 30-40 µg protein in SDS sample buffer at 37°C or 80°C; dimer at ∼72 kDa. A general note: A western blot detects proteins with antibodies after separation by electrophoresis.

For test [2], the target named is T1, c-myc tagged rat CSPα_(1–198) (cysteine string protein) (rat) (UniProt P60905).
T1 sequence (chain, both unmodified and palmitoylated (extensive fatty acylation) species seen): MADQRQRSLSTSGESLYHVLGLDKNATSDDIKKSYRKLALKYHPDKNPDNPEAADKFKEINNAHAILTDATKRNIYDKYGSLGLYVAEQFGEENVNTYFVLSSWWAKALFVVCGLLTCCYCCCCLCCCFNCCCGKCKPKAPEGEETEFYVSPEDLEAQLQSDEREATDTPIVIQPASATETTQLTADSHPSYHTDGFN
The test is described as above.

Test [3] has as its target purified recombinant rat CSPα (rat) (UniProt P60905). Put plainly: SDS-resistant dimer on SDS-PAGE with Western blot; equal volumes of purified recombinant rat CSPα treated with indicated concentrations of quercetin for 24 hrs; both purified.
Test [4] has as its target native CSPα of rat cortical neurons and rat brain (rat (endogenous in rat cortical neurons and rat brain)) (UniProt P60905). Put plainly: SDS-resistant dimer on SDS-PAGE with Western blot; crude rat brain homogenate with quercetin; data not shown.
For test [5] the target is unchanged. Put plainly: SDS-resistant dimer on SDS-PAGE with Western blot; 25 µg unfractionated homogenate of regions of adult rat brain, monoclonal anti-CSPα antibody.
For test [6] the target is unchanged. Put plainly: SDS-resistant dimer on SDS-PAGE with Western blot; lysates of cultured rat cortical neurons treated with quercetin (20-100 µM) or DMSO for 24 h.
The target of test [7] is T2, Gαs (mouse (endogenous in CAD cells)), P63094.
T2 chain: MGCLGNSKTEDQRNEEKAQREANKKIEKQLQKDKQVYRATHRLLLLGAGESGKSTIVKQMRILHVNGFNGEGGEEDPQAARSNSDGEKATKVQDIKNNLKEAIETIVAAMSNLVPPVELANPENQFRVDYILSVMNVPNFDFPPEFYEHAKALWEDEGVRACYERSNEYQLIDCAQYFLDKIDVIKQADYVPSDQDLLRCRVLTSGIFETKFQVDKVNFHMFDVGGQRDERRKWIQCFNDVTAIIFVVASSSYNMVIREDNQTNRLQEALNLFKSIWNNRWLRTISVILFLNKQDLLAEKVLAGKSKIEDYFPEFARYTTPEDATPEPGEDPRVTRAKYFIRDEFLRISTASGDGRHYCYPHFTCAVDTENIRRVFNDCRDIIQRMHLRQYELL
The experiment in a line: SDS-resistant dimer on SDS-PAGE with Western blot; lysates of transiently transfected CAD cells, control or treated 24 h with quercetin (up to 200 µM), EGCG or other agents; 30-40 µg protein in SDS sample buffer at 37°C or 80°C; dimer at ∼72 kDa. As to conditions: remark: other sources report otherwise.

Substrate in test [8]: CSPα deletion construct lacking the cysteine string region amino acids 113–136 (rat) (UniProt P60905)
The description is as above.

These are yes or no findings as the source states them, for the method shown. Some binding calls cover weakened binding; strength is not graded here. For some assays here: Where a sequence is shown, tags or fusion partners need not be part of it.

B1: CSPα_(1–82) truncation construct (J domain only) (domain or fragment, UniProt P60905 1-82)
chain: MADQRQRSLSTSGESLYHVLGLDKNATSDDIKKSYRKLALKYHPDKNPDNPEAADKFKEINNAHAILTDATKRNIYDKYGSL
On to B1, for which, in test [1], the binding result is “no binding”.

B2: c-myc tagged rat CSPα_(1–198) (cysteine string protein) (protein, UniProt P60905 1-198)
chain: T1 sequence (chain, both unmodified and palmitoylated (extensive fatty acylation) species seen)
modifications: both unmodified and palmitoylated (extensive fatty acylation) species seen
Turning to B2, in test [2], the binding result was “binds”.

B3: purified recombinant rat CSPα (protein, UniProt P60905 1-198)
chain: T1 sequence (chain, both unmodified and palmitoylated (extensive fatty acylation) species seen)
Regarding B3, in test [3], the binding result was “binds”.

B4: native CSPα of rat cortical neurons and rat brain (protein, UniProt P60905 1-198)
chain: T1 sequence (chain, both unmodified and palmitoylated (extensive fatty acylation) species seen)
modifications: palmitoylated monomer at ∼34 kDa seen
For the molecule B4, the binding entry in test [4], in test [5] and in test [6] was “binds” each time.

B5: Gαs, P63094 1-394 (protein)
chain: T2 chain
As for B5, in test [7], the binding result was “no binding”.

B6: CSPα deletion construct lacking the cysteine string region amino acids 113–136 (protein, UniProt P60905)
chain: MADQRQRSLSTSGESLYHVLGLDKNATSDDIKKSYRKLALKYHPDKNPDNPEAADKFKEINNAHAILTDATKRNIYDKYGSLGLYVAEQFGEENVNTYFVLSSWWAKALFVVKPKAPEGEETEFYVSPEDLEAQLQSDEREATDTPIVIQPASATETTQLTADSHPSYHTDGFN
B6: the binding entry in test [8] is “no binding”.
